The results in this text go back to patent US20260193238A1, “PHARMACEUTICAL COMPOUNDS AS PARP7 AND/OR PARP1 INHIBITORS” (Duke Street Bio Limited, priority 2022, published 2026).

This assay addresses T1, PARP7 (amino acids 456-657) (Homo sapiens, UniProt Q7Z3E1).
T1 sequence (Q7Z3E1 456-657): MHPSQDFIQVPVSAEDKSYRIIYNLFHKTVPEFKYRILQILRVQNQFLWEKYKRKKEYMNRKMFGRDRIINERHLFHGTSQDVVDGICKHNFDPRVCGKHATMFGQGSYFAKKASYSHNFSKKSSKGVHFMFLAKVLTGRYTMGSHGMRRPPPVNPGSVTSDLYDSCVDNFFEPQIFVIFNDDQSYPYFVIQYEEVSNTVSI
Put plainly: PARP7 biochemical DELFIA assay (auto-MARylation). The note with it: Table 1A.
In the case of `O=C(CN1CCCC1c1cc(C(F)(F)F)c(=O)[nH]n1)N1CC2(CCN(c3ncc(C(F)(F)F)cn3)CC2)C1` (single isomer, unassigned) [Compound 110b], the IC50 was in the range of 100 to 1000 nM.
Take `N#Cc1cc(C2CCCN2CC(=O)N2CCN(c3nc4ccc(F)cc4o3)CC2)n[nH]c1=O` (single isomer, unassigned) [Compound 111a]: the IC50 was at most 10 nM.
The molecule `O=C(CN1Cc2ccccc2C1c1cc(C(F)(F)F)c(=O)[nH]n1)N1CC(Oc2ncc(C(F)(F)F)cn2)C1` (single isomer, unassigned) [Compound 114b] registered an IC50 above 10000 nM.
For `O=C(CN1CCCC1c1cc(C(F)(F)F)c(=O)[nH]n1)N1CCN(c2ncc(F)cc2Cl)CC1` (single isomer, unassigned) [Compound 116b], the 50% inhibitory concentration (IC50) was in the range of 1000 to 10000 nM.
In the case of `O=C(CN1CCCC1c1cc(C(F)(F)F)c(=O)[nH]n1)N1CCN(c2nc3ccccn3n2)CC1` (single isomer, unassigned) [Compound 117a], the IC50 is at most 10 nM.
`O=C(CN1CCCC1c1cc(C(F)(F)F)c(=O)[nH]n1)N1CCN(c2ncc(OC(F)F)cn2)CC1` (single isomer, unassigned) [Compound 118a] had an IC50 of at most 10 nM.
On to `O=C(CN1CCCC1c1cc(C(F)(F)F)c(=O)[nH]n1)N1CCN(c2ncc(OC(F)F)cn2)CC1` (single isomer, unassigned) [Compound 118b], for which the half-maximal inhibitory concentration (IC50) lay within 1000 to 10000 nM.
As for `Cn1c(N2CCN(C(=O)CN3CCCC3c3cc(C(F)(F)F)c(=O)[nH]n3)CC2)nc2ccc(F)cc21` (single isomer, unassigned) [Compound 119b], the IC50 lay within 1000 to 10000 nM.
In the case of `O=C(CN1CCCC1c1cc(C(F)(F)F)c(=O)[nH]n1)N1CCN(c2ncc(F)cc2C(F)(F)F)CC1` (single isomer, unassigned) [Compound 120a], the half-inhibitory concentration (IC50) is 10 to 100 nM.
The value for `O=C(CN1CCCC1c1cc(C(F)(F)F)c(=O)[nH]n1)N1CCN(c2ncc(F)cc2C(F)(F)F)CC1` (single isomer, unassigned) [Compound 120b] was 1000 to 10000 nM; that for `N#Cc1cc(C2CCCN2CC(=O)N2CCN(c3nc4cc(Cl)ccc4o3)CC2)n[nH]c1=O` (single isomer, unassigned) [Compound 121a] was 10 to 100 nM; that for `N#Cc1cc(C2CCCN2CC(=O)N2CCN(c3nc4cc(Cl)ccc4o3)CC2)n[nH]c1=O` (single isomer, unassigned) [Compound 121b] was 1000 to 10000 nM.
Molecule `N#Cc1cc(C2CCCN2CC(=O)N2CC(Nc3ncc(C(F)(F)F)cn3)C2)n[nH]c1=O` (single isomer, unassigned) [Compound 123a] came in with an IC50 of 100 to 1000 nM.
In the case of `N#Cc1cnc(N2CCN(C(=O)CN3CCCC3c3cc(C(F)(F)F)c(=O)[nH]n3)CC2)c(C(F)(F)F)c1` (single isomer, unassigned) [Compound 124b] it was 1000 to 10000 nM; in that of `O=C(CN1CCCC1c1cc(C(F)(F)F)c(=O)[nH]n1)N1CCN(c2ncc(Cl)cc2Cl)CC1` (single isomer, unassigned) [Compound 125a], at most 10 nM.
As to `O=C(CN1CCCC1c1cc(C(F)(F)F)c(=O)[nH]n1)N1CCN(c2ncc(Cl)cc2Cl)CC1` (single isomer, unassigned) [Compound 125b], the concentration for half-maximal inhibition (IC50) is 1000 to 10000 nM.
Consider `O=C(CN1CCCC1c1cc(C(F)(F)F)c(=O)[nH]n1)N1CCN(c2ccc(C(F)F)cn2)CC1` (single isomer, unassigned) [Compound 126a], for which the IC50 was at most 10 nM.
In the case of `O=C(CN1CCCC1c1cc(C(F)(F)F)c(=O)[nH]n1)N1CCN(c2ccc(C(F)F)cn2)CC1` (single isomer, unassigned) [Compound 126b] it was 100 to 1000 nM; in that of `CN(c1ncc(C(F)(F)F)cn1)C1CN(C(=O)CN2CCCC2c2cc(C(F)(F)F)c(=O)[nH]n2)C1` (single isomer, unassigned) [Compound 127b], 1000 to 10000 nM.
For the molecule `O=C(CN1CCCC1c1cc(C(F)(F)F)c(=O)[nH]n1)N1CCN(c2nc3ccc(F)cn3n2)CC1` (single isomer, unassigned) [Compound 128a], the IC50 is at most 10 nM.
The value for `O=C(CN1CCCC1c1cc(C(F)(F)F)c(=O)[nH]n1)N1CCN(c2nc3ccc(F)cn3n2)CC1` (single isomer, unassigned) [Compound 128b] was 100 to 1000 nM; that for `COC1CC(c2cc(C(F)(F)F)c(=O)[nH]n2)N(CC(=O)N2CCN(c3ncc(C(F)(F)F)cn3)CC2)C1` (single isomer, unassigned) [Compound 138cis1, 6-(4-methoxy-1-(2-oxo-2-(4-(5-(trifluoromethyl)pyrimidin-2-yl)piperazin-1-yl)ethyl)pyrrolidin-2-yl)-4-(trifluoromethyl)pyridazin-3(2H)-one] was at most 10 nM; that for `COC1CC(c2cc(C(F)(F)F)c(=O)[nH]n2)N(CC(=O)N2CCN(c3ncc(C(F)(F)F)cn3)CC2)C1` (single isomer, unassigned) [Compound 138cis2, 6-(4-methoxy-1-(2-oxo-2-(4-(5-(trifluoromethyl)pyrimidin-2-yl)piperazin-1-yl)ethyl)pyrrolidin-2-yl)-4-(trifluoromethyl)pyridazin-3(2H)-one] was 1000 to 10000 nM.
The molecule `COC1CC(c2cc(C(F)(F)F)c(=O)[nH]n2)N(CC(=O)N2CCN(c3ncc(C(F)(F)F)cn3)CC2)C1` (single isomer, unassigned) [Compound 138trans1, 6-(4-methoxy-1-(2-oxo-2-(4-(5-(trifluoromethyl)pyrimidin-2-yl)piperazin-1-yl)ethyl)pyrrolidin-2-yl)-4-(trifluoromethyl)pyridazin-3(2H)-one] gave an IC50 of at most 10 nM.
In turn, `COC1CC(c2cc(C(F)(F)F)c(=O)[nH]n2)N(CC(=O)N2CCN(c3ncc(C(F)(F)F)cn3)CC2)C1` (single isomer, unassigned) [Compound 138trans2, 6-(4-methoxy-1-(2-oxo-2-(4-(5-(trifluoromethyl)pyrimidin-2-yl)piperazin-1-yl)ethyl)pyrrolidin-2-yl)-4-(trifluoromethyl)pyridazin-3(2H)-one] gave an IC50 of 1000 to 10000 nM.
`N#Cc1cc(Cl)cnc1N1CCN(C(=O)CN2CCCC2c2cc(C(F)(F)F)c(=O)[nH]n2)CC1` (single isomer, unassigned) [Compound 144a] came in with an IC50 of at most 10 nM.
The molecule `N#Cc1ccc2nc(N3CCN(C(=O)CN4CCCC4c4cc(C#N)c(=O)[nH]n4)CC3)oc2c1` (single isomer, unassigned) [Compound 145b] returned an IC50 above 10000 nM.
`N#Cc1cc(F)cnc1N1CCN(C(=O)CN2CCCC2c2cc(C(F)(F)F)c(=O)[nH]n2)CC1` (single isomer, unassigned) [Compound 146a] showed an IC50 of at most 10 nM.
The value for `N#Cc1cc(C2CCCN2CC(=O)N2CCN(c3nc4cc(F)ccc4o3)CC2)n[nH]c1=O` (single isomer, unassigned) [Compound 149a] was at most 10 nM; that for `N#Cc1cc(C2CCCN2CC(=O)N2CCN(c3nc4cc(F)ccc4o3)CC2)n[nH]c1=O` (single isomer, unassigned) [Compound 149b] was 100 to 1000 nM; that for `O=C(CN1CCCC1c1cc(C(F)(F)F)c(=O)[nH]n1)N1CCN(c2nc3cc(F)ccc3o2)CC1` (single isomer, unassigned) [Compound 150b] was 10 to 100 nM.
The value for `CNC(=O)c1ccc(N2CCN(C(=O)CCN3CCC(c4n[nH]c(=O)c5ccccc45)CC3)CC2)cn1` [Compound 48, N-methyl-5-(4-(3-(4-(4-oxo-3,4-dihydrophthalazin-1-yl)piperidin-1-yl)propanoyl)piperazin-1-yl)picolinamide] was above 10000 nM.
In turn, `O=C(CCN1CCC(c2n[nH]c(=O)c3ccccc23)CC1)N1CCN(c2ncc(C(F)(F)F)cn2)CC1` [Compound 49] came in with an IC50 above 10000 nM.
Molecule `CNC(=O)c1ccc(N2CCN(C(=O)CN3CCC(c4n[nH]c(=O)c5ccccc45)CC3)CC2)cn1` [Compound 50] came in with an IC50 above 10000 nM.
In the case of `O=C(CN1CCC(c2n[nH]c(=O)c3ccccc23)CC1)N1CCN(c2ncc(C(F)(F)F)cn2)CC1` [Compound 51] it was 1000 to 10000 nM.
`CNC(=O)c1ccc(N2CCN(C(=O)CCN3CCC(c4cc(C(F)(F)F)c(=O)[nH]n4)CC3)CC2)cn1` [Compound 59] yielded a half-inhibitory concentration (IC50) above 10000 nM.
`O=C(CCN1CCC(c2cc(C(F)(F)F)c(=O)[nH]n2)CC1)N1CCN(c2ncc(C(F)(F)F)cn2)CC1` [Compound 61] returned an IC50 above 10000 nM.
Consider `O=C(CN1CCC(c2cc(C(F)(F)F)c(=O)[nH]n2)CC1)N1CCN(c2ncc(C(F)(F)F)cn2)CC1` [Compound 62], for which the half-maximal inhibitory concentration (IC50) lay within 100 to 1000 nM.
The value for `CNC(=O)c1ccc(N2CCN(C(=O)CN3CCC(c4cc(C(F)(F)F)c(=O)[nH]n4)CC3)CC2)cn1` [Compound 64] was 1000 to 10000 nM; that for `O=C(CN1CC2(c3cc(C(F)(F)F)c(=O)[nH]n3)CC1C2)N1CCN(c2ncc(C(F)(F)F)cn2)CC1` [Compound 86] was 1000 to 10000 nM.
The molecule `O=C(CN1CC(F)(F)C[C@@H]1c1cc(C(F)(F)F)c(=O)[nH]n1)N1CCN(c2ncc(C(F)(F)F)cn2)CC1` [Compound 91a, (R)-6-(4,4-difluoro-1-(2-oxo-2-(4-(5-(trifluoromethyl)pyrimidin-2-yl)piperazin-1-yl)ethyl)pyrrolidin-2-yl)-4-(trifluoromethyl)pyridazin-3(2H)-one] came in with an IC50 of at most 10 nM.
The value for `O=C(CN1CC(F)(F)C[C@H]1c1cc(C(F)(F)F)c(=O)[nH]n1)N1CCN(c2ncc(C(F)(F)F)cn2)CC1` [Compound 91b, (S)-6-(4,4-difluoro-1-(2-oxo-2-(4-(5-(trifluoromethyl)pyrimidin-2-yl)piperazin-1-yl)ethyl)pyrrolidin-2-yl)-4-(trifluoromethyl)pyridazin-3(2H)-one] was 100 to 1000 nM; that for `CC1(C)C[C@H](c2cc(C(F)(F)F)c(=O)[nH]n2)N(CC(=O)N2CCN(c3ncc(C(F)(F)F)cn3)CC2)C1` [Compound 94a] was 10 to 100 nM; that for `O=C(CCN1CC2(c3cc(C(F)(F)F)c(=O)[nH]n3)CC1C2)N1CCN(c2ncc(C(F)(F)F)cn2)CC1` [Compound 103] was 1000 to 10000 nM.
